Measured values as given in PubChem BioAssay AID1030 (National Center for Advancing Translational Sciences (NCATS), 2008).
The campaign covered roughly 220,000 compounds. About 16,000 (7.3%) were called active. Inconclusive means that the source gave no clear call. Such entries were picked first, then a sample of the others. Calls follow the shape of the dose curve; as a rule, active = well fitted inhibition curve with a large enough effect (not every such curve was filed as active); inconclusive = small, poorly fitted or top-dose-only effect, or another doubt; inactive = no such curve, though single readings can be large or run the other way. No potency is given beside an inconclusive call; the fits are too rough.

Molecular target: Aldehyde dehydrogenase 1A1 (Homo sapiens) (UniProt P00352)
Test: qHTS Assay for Inhibitors of Aldehyde Dehydrogenase 1 (ALDH1A1);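 as to activity, negative = inhibition: plate controls were no enzyme wells and a reference inhibitor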
Conditions: Purified ALDH1A1, NADH fluorescence, propionaldehyde substrate; series mostly up to 75.3 µM
Potency is read from the fitted curve at half-maximal effect; tags tell the direction and shape of the fitted curve.

UniProt P00352, sequence (P00352 whole entry, looked up): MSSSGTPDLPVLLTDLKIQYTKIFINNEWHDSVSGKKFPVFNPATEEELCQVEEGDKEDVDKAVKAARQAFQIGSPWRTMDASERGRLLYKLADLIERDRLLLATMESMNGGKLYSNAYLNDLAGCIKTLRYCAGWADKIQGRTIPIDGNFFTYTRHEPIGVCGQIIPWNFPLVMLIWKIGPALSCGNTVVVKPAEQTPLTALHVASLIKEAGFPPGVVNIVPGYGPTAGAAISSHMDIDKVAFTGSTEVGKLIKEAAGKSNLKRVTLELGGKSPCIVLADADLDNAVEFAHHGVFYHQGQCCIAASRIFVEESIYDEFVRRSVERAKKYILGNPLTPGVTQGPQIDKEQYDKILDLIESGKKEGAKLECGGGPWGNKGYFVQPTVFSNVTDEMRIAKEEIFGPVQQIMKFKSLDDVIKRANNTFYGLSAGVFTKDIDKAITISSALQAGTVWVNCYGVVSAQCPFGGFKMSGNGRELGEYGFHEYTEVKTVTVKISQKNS

Row | SMILES | Potency | activity, negative = inhibition
1 | CCN1CCN(C(=S)c2ccc(SC)cc2)CC1 | inconclusive [inhibitor, single point] | 
2 | CC1CCN(S(=O)(=O)N2CCC(C(=O)NCc3ccc4c(c3)OCO4)CC2)CC1 | inconclusive [inhibitor, partial curve] | 
3 | CCOC(=O)C1CCN(c2ncnc3c2nnn3Cc2ccccc2Cl)CC1 | inconclusive [inhibitor, partial curve] | 
4 | Cc1cccc(-n2c(C)nc3c(cnn3-c3ccc(F)cc3)c2=O)c1 | inconclusive [inhibitor, partial curve] | 
5 | CCOC(=O)c1ccc(NS(=O)(=O)c2cccc3nsnc23)cc1 | inconclusive [inhibitor, single point] | 
6 | COCC(=O)N/N=C/c1ccc(Sc2nc3ccccc3s2)o1 | inconclusive [inhibitor, single point] | 
7 | COc1ccc(NC(=O)CN(C)CC(=O)Nc2ccc(Cl)c(S(=O)(=O)N(C)C)c2)cc1 | inconclusive [inhibitor, single point] | 
8 | COC(=O)c1ccccc1NC(=O)Cn1cnc2ccc(S(=O)(=O)N3CCC(C)CC3)cc2c1=O | inactive | 
9 | O=[N+]([O-])c1cc(CN2CCC(O)CC2)ccc1Cl | inconclusive [inhibitor, single point] | 
10 | NS(=O)(=O)c1ccc(CCN2C(=O)/C(=C\c3ccc(Cl)cc3)SC2=S)cc1 | inconclusive [inhibitor, partial curve] | 
11 | O=C(Nc1nc2c(s1)CCCC2)c1ccc(Br)o1 | inconclusive [inhibitor, single point] | 
12 | CCCc1cnc(N2CCN(C(=O)c3c(-c4ccccc4)noc3C)CC2)nc1 | inconclusive [inhibitor, single point] | 
13 | Cc1c(C(=O)NCc2ccoc2)oc2ccc3c(c12)C(=O)CC(C)(C)O3 | inconclusive [inhibitor, partial curve] | 
14 | COc1cc(OC)c(NC(=O)c2c(-c3ccccc3)noc2C)cc1Cl | inconclusive [inhibitor, partial curve] | 
15 | COc1ccc(OC)c(NC(=O)COC(=O)Cc2ccc(-c3ccccc3)cc2)c1 | inactive | 
16 | O=C(COC(=O)c1ccc2[nH]c3c(c2c1)CCCC3)Nc1ccccc1Cl | inconclusive [inhibitor, single point] | 
17 | CC(C)(C)c1ccc(OCC(=O)N/N=C/c2cc(Br)ccc2OC(=O)c2ccco2)cc1 | inactive | 
18 | COc1ccc(C(C)=O)cc1CSc1nnc(Nc2ccc(C)cc2)s1 | inconclusive [inhibitor, single point] | 
19 | COc1cccc(Nc2ncc3nc(C)c(=O)n(C4CC4)c3n2)c1 | inactive | 
20 | Cc1ccccc1SCC(=O)N1CCN(c2ccc(C(F)(F)F)cn2)CC1 | inconclusive [inhibitor, single point] | 
21 | COc1ccc(-n2c(SCC3OCCO3)nc3c(sc(=S)n3-c3ccccc3)c2=O)cc1OC | inconclusive [inhibitor, single point] | 
22 | CCOCCCNCC(O)c1ccccc1 (stereo not drawn) | inconclusive [inhibitor, partial curve, poor fit] | 

Row | SMILES | Potency | activity, negative = inhibition
23 | O=C(c1ccc(S(=O)(=O)N2CCCCC2)cc1)N1CCN(c2ccccc2F)CC1 | inconclusive [inhibitor, partial curve] | 
24 | Cc1nnc(NC(=O)CCC(=O)NCc2ccco2)s1 | inconclusive [inhibitor, single point] | 
25 | CC(=O)N(CCC(c1ccco1)C(C)C)Cc1ccc(OC(C)C)cc1 (stereo not drawn) | inconclusive [inhibitor, single point] | 
26 | CC(C)(C)NC(=O)c1nn(Cc2ccccc2)c(=O)c2ccccc12 | inconclusive [inhibitor, partial curve, poor fit] | 
27 | COc1ccc(N(C)S(=O)(=O)c2cccc(C(=O)NCc3ccc4c(c3)OCO4)c2)cc1 | inactive | 
28 | O=C(Cc1c(Cl)cccc1Cl)NC1=NCCS1 | inactive | 
29 | CC(=O)c1ccc(C2C=CC(O)C(CO)O2)cc1 (stereo not drawn) | inconclusive [inhibitor, single point] | 
30 | Cc1c(/N=C(\[O-])Nc2ccc(Br)cc2)sn[n+]1C | inconclusive [inhibitor, single point] | 
31 | Cc1ccc(S(=O)(=O)NCCC(C)C)cc1[N+](=O)[O-] | inconclusive [inhibitor, partial curve] | 
32 | Cc1ccc(C2CC(=O)NC(SCC(=O)Nc3nccs3)=C2C#N)cc1 (stereo not drawn) | inactive | 
33 | COC(=O)NC(/C=C/c1ccccc1)[C@]1(C(C)=O)CCCC1=O (stereo partly drawn) |  | inactive: -10.1% [at 13.5 µM]
34 | COc1ccc(Cl)cc1NC(=O)CCNC(=O)OCc1ccccc1 | inactive | 
35 | COc1ccc(C(C2C(=O)CC(C)(C)CC2=O)C2C(=O)CC(C)(C)CC2=O)cc1COCC(F)(F)F | inconclusive [inhibitor, single point] | 
36 | CCN(CC)S(=O)(=O)c1ccc(C(=O)NCc2ccc(C)cc2)cc1 | active: 10 µM | 
37 | N#CCC(=N)N1CCN(c2cccc(Cl)c2)CC1 | inconclusive [inhibitor, single point] | 
38 | C=CCNc1nc(NCc2ccccc2)c(C#N)c2c1CN(C)CC2 | inconclusive [inhibitor, partial curve] | 
39 | CCN(CC)c1ccc(N2C(=O)/C(=C/c3cccs3)SC2=S)cc1 | inconclusive [inhibitor, partial curve, poor fit] | 
40 | CC(C)Cc1nc2oc3c(NCc4cccnc4)ncnc3c2c2c1CCC2 | inconclusive [inhibitor, partial curve] | 
41 | CCOc1cc(S(=O)(=O)Nc2ccc(Cl)cn2)ccc1F | inactive | 
42 | CCSc1n[nH]c2nc3c(c(=O)n12)C1(CCCC1)Cc1ccccc1-3 | inconclusive [inhibitor, partial curve] | 
43 | CCCCOC(=O)Nc1nnc(/C=C/c2ccc(OC)cc2)s1 | inconclusive [inhibitor, partial curve] | 
